PubChem BioAssay AID2073 (Sanford-Burnham Center for Chemical Genomics, 2009)
The list shows a part of the results. These are further read-outs of the screen, such as a control signal, another cell line or another target. No call is given for them.

The compounds below were run against Voltage-dependent N-type calcium channel subunit alpha-1B (Homo sapiens) (UniProt Q00975) (assay: disruptors of CaV2.2 binding to Mint1 – biochemical, HTRF (AID 2073)). Details: HTRF protein-protein interaction, Mint1-CaV2.2; measured here: average of repeat tests; at 20 µM; stronger effect = higher value.
Chain of UniProt Q00975 (Q00975 whole entry, looked up): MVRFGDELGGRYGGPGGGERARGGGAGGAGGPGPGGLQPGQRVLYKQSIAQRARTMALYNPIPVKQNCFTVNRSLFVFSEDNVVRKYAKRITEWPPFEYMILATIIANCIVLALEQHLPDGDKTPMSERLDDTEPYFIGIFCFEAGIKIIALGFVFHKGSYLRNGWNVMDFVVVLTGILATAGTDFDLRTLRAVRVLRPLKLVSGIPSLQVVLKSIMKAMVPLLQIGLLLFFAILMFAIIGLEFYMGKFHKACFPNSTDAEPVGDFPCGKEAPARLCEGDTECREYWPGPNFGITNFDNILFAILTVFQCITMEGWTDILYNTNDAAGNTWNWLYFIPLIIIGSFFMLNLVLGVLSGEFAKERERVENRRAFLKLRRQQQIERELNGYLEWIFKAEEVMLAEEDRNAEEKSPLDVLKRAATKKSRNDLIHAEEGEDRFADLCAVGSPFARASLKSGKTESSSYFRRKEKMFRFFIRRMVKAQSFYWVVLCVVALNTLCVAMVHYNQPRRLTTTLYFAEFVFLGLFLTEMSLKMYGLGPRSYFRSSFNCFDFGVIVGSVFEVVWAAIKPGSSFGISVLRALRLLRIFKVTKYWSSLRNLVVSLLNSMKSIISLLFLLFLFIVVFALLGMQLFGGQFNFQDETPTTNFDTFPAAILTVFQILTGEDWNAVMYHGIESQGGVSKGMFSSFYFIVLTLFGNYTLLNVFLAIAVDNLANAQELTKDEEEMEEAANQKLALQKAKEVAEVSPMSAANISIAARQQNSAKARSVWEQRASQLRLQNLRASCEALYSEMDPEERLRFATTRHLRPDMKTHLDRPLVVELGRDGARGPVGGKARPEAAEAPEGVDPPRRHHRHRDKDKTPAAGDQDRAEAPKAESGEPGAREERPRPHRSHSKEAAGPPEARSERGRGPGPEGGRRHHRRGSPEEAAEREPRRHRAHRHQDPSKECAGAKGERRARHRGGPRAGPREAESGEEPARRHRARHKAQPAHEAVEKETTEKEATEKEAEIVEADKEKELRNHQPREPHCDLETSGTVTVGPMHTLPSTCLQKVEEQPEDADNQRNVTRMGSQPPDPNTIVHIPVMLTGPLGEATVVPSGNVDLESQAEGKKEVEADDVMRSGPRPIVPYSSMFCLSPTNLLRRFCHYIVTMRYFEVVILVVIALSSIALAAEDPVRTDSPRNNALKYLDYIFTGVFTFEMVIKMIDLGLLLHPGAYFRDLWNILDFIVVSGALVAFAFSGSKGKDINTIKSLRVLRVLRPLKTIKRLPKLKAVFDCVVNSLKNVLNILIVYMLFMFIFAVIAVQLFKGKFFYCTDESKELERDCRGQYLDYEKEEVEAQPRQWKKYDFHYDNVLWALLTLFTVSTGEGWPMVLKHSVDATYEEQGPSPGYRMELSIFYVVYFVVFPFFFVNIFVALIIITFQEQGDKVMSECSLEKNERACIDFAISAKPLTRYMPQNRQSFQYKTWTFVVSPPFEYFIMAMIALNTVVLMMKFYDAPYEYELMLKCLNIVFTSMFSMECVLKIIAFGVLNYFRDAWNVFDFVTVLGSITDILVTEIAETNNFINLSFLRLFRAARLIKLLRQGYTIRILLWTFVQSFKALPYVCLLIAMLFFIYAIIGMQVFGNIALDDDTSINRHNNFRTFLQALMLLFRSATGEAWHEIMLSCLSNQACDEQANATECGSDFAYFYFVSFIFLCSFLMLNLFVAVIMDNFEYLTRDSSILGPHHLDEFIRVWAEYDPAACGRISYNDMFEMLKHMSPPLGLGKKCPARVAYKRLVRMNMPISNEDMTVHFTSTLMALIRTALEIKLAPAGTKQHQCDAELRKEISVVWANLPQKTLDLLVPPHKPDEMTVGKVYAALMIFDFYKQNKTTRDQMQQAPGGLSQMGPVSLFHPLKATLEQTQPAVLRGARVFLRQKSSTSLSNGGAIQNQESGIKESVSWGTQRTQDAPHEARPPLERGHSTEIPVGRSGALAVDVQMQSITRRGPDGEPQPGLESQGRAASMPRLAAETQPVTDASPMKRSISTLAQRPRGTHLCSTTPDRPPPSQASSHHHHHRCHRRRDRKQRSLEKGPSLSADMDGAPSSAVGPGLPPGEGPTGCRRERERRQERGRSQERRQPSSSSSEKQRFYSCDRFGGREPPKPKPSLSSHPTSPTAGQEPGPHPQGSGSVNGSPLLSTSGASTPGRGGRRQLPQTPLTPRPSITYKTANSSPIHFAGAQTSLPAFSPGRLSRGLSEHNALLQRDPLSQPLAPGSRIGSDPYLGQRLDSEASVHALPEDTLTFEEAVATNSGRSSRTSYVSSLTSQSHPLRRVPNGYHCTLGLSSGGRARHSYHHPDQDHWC

SMILES	inhibition [%]
CN(CCOC(=O)/C=C/c1ccco1)Cc1ccccc1	62
O=C(Nc1ccncc1NC(=O)c1cccc([N+](=O)[O-])c1)c1cccc([N+](=O)[O-])c1	50.4
Cc1cc(C)n(Cc2ccc(C(=O)N/N=C/c3ccc(-c4ccc([N+](=O)[O-])cc4)o3)o2)n1	55
C/C=C\C=C/C(=O)Nc1cccc(C2=NOC3(C2)C[C@@H](C(N)=O)N(C(=O)/C=C/C=C\C)C3)c1 (some centres undefined)	76.9
O=[N+]([O-])c1ccc(-c2c[nH]c(=S)[nH]2)cc1	54.4
Cc1c(O)cc2c(c1O)C(=O)CC(c1ccc(O)cc1)O2 (centres undefined)	55.3
Cc1ccccc1-c1cc(C(=O)Nc2sc(C(=O)OC(C)C)c(C)c2C#N)c2ccccc2n1	47.8
O=C(CCS(=O)(=O)c1ccccc1)Nc1ccc(-c2nc3ccccc3s2)cc1	47.2
c1coc(-c2nnc(-c3ccco3)nn2)c1	63.9
CC(=O)Nc1ccc(NC(=O)c2ccc(NC(=O)c3ccccc3)cc2)cc1	48.3
CCOc1ccc(NC(=O)Cn2cncc2-c2ccc([N+](=O)[O-])cc2)cc1	31.3
Cc1ccc(/C=C2\SC(=S)N(CCC(=O)NNC(=O)c3cccc(O)c3)C2=O)cc1	43.8
Cc1ccccc1N1C(=O)CC(Sc2nnc(-c3ccccc3)o2)C1=O (centres undefined)	67.7
COc1ccc(/C=C2\SC(=S)N(CC(=O)NNC(=O)c3ccncc3)C2=O)cc1	43.4
COC/C=C/C1=CC2=CC(=O)C(C)(OC(=O)c3cnc4ccccc4n3)C(=O)C2=CN1c1ccc(CO)cc1 (centres undefined)	78.2
Cc1cccc(NC(=S)NCc2ccco2)n1	64.1
Clc1nssc1=Nc1ccccc1	74.4
N#CCC(=O)N/N=C/c1cn(Cc2ccc(Cl)c(Cl)c2)c2ccccc12	61.2
O=C(O)c1ccc(NS(=O)(=O)c2ccc3c(c2)C2C=CCC2C(c2ccccc2F)N3)cc1 (centres undefined)	40.4
Cc1cc(C)c2c(=O)n(CC(=O)N3CCC(Cc4ccccc4)CC3)sc2n1	78.4
COc1ccc(OC)c(CCNC(=O)Cn2sc3nc(C)cc(C)c3c2=O)c1	87.3
COc1cccc2c1NC(C(=O)O)C1CC=CC21 (centres undefined)	55

SMILES	inhibition [%]
O=C(Nc1ccc(S(=O)(=O)N2CCOCC2)cc1)c1ccc(=O)[nH]c1	54.9
N#Cc1c(C#N)c(O)c2ccccc2c1O	63
CCNC(=S)NC(=NCc1cccnc1)Nc1nc(C)cc(C)n1	79.8
Cc1cc(C)c2c(=O)n(CC(=O)Nc3cccc(F)c3)sc2n1	86.9
COc1cc(/C=C2\SC(=O)N(c3cccc(Cl)c3)C2=O)cc([N+](=O)[O-])c1O	88.2
COc1cccc(N=c2oc3ccc(OC)cc3cc2-c2nc3ccccc3[nH]2)c1	50.4
O=c1[nH]c(-c2ccc3c(c2)OCO3)nc2c1sc(=S)n2-c1ccccc1	66.6
CCOc1ccc(N2C(=O)CC(Sc3nnnn3-c3ccccc3)C2=O)cc1 (centres undefined)	71.6
O=C(CCN1C(=O)/C(=C/c2ccccc2Cl)SC1=S)NC1CCS(=O)(=O)C1 (centres undefined)	83.7
O=C1C([N+](=O)[O-])=C(O)c2cccc3cccc1c23	73.1
Cc1c(Cc2ccccc2)sc(NC(=O)c2ccco2)c1C(N)=O	56.1
COCCn1c(=NC(=O)/C=C/c2cccs2)sc2cc(NC(C)=O)ccc21	51.4
NNc1cc([N+](=O)[O-])cc2c1C(=O)N(Cc1ccccc1)S2=O (centres undefined)	80.6
CN(C(=O)COC(=O)c1cc(-c2ccco2)nc2ccccc12)C1CCS(=O)(=O)C1 (centres undefined)	76.4
N#C/C(=C/c1ccc(OCc2ccc(C(=O)O)cc2)c(Br)c1)c1cccc(F)c1	67.9
COc1ccc(NS(=O)(=O)c2cccc(C(=O)NNC(=O)c3cccn3C)c2)cc1	68.5
NS(=O)(=O)c1ccc(NS(=O)(=O)c2ccc(NC(=O)c3ccc(-c4ccccc4)cc3)cc2)cc1	48.5
CC(OC(=O)c1ccc(NC(=O)CC#N)cc1)C(=O)Nc1ccc(Oc2ccccc2)cc1 (centres undefined)	63.1
COC(=O)c1ccccc1NC(=O)c1cc(-c2ccco2)on1	42
Nc1ccc2nc(-c3ccc(-c4nc5ccc(N)cc5[nH]4)cc3)[nH]c2c1	51.7
CC1=C(C(=O)O)N2C(=O)C(NC(=O)c3ccccc3Cl)C2SC1 (centres undefined)	84.2
COc1cccc2cc(C(=O)Nc3ccc(S(=O)(=O)NCC4CCCO4)cc3)c(=O)oc12 (centres undefined)	53.1

SMILES	inhibition [%]
O=C(O)CCCNC(=O)/C=C/c1ccco1	77.2
CCCc1cc(=O)oc2cc(OCC(=O)Nc3ccc(S(N)(=O)=O)cc3)ccc12	76
N#CC1=C(N)NC(=S)C(C(N)=O)C1c1ccc(Cl)cc1Cl (centres undefined)	79
O=C(O)c1ccc(Nc2nc(-c3cc4ccccc4oc3=O)cs2)cc1O	79.3
COc1ccc(-c2cc3c(=O)n(CC(=O)Nc4ccc(C(C)=O)cc4)ncn3n2)cc1	61.3
Cc1cc2oc(C(=O)Nc3ccc(S(N)(=O)=O)cc3)c(C)c2cc1Cl	38.2
Cc1cc(C)c2c(=O)n(CC(=O)Nc3cccc(Cl)c3C)sc2n1	81.4
N#Cc1c(Nc2ccccc2C(F)(F)F)s[nH]c1=O	68
CCOC(=O)c1sc2nc(-c3ccco3)c3c(c2c1N)CC(C)(C)OC3	53.3
COc1ccc2cc3c(N)nn(C(=O)c4cccc([N+](=O)[O-])c4)c3nc2c1	47.8
CCc1ccc2nc(NC(=O)c3ccc4c(=O)[nH]c(CN5CCOCC5)nc4c3)sc2c1	54.1
Nc1ccc2nc(-c3ccc(N)c(Cl)c3)[nH]c2c1	66.1
Cc1cccc(NC(=S)NC2CCCC2)n1	72.4
O=C(O)c1ccc(N2C(=O)/C(=C/c3ccc(-c4ccc([N+](=O)[O-])cc4)o3)C=C2c2ccccc2)cc1	90.8
C=C(C)C(=O)Nc1cccc(C2=NOC3(C2)C[C@@H](C(N)=O)N(C(=O)/C(C)=C/C)C3)c1 (some centres undefined)	73.9
CC(C)n1cc(/C=N/Nc2ccc(Cl)c(C(=O)O)c2)c2ccccc21	82.9
CC(=O)c1cccc(NC(=O)c2cc(-c3ccc(C)cc3)on2)c1	51.7
COc1ccc(N2CSC3=C(C#N)C(c4cccs4)CC(=O)N3C2)cc1 (centres undefined)	60.8
O=C(Nc1ccc(F)cc1)C1=CC(=O)N2CCN=C2S1	66.8
COc1ccc2ccccc2c1C1CC(=O)N2CN(C3CCCCC3)CSC2=C1C#N (centres undefined)	47.6
